Test results published in PubChem BioAssay AID995 (National Center for Advancing Translational Sciences (NCATS), 2007).
Hit rate of the full screen: of about 72,000 compounds, about 710 (0.99%) were called active. Inconclusive means that the source gave no clear call. Such entries were picked first, then a sample of the others. Calls follow the shape of the dose curve; as a rule, active = well fitted inhibition curve with a large enough effect; inconclusive = small, poorly fitted or top-dose-only effect; inactive = no such curve, though single readings can be large or run the other way. No potency is given beside an inconclusive call; the fits are too rough.

Test: qHTS Assay for Inhibitors of the ERK Signaling Pathway using a Homogeneous Screening Assay; also: nearly all actives have a fitted effect of over 55% in size
Details: HEK293-V1b, vasopressin-stimulated pERK AlphaScreen; activity, negative = inhibition: at 57.5 µM (top of the series) unless noted
Method in brief: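 HEK293 cells stably expressing V1b receptor, seeded overnight in 1% FBS, were treated with compounds for 30 min at 37C, then stimulated 5 min with 25 nM vasopressin; phospho-ERK read by AlphaScreen SureFire after lysis.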
% is scaled to controls: 0 for no effect and ±100 for the full control effect; potency is read from the fitted curve at half-maximal effect; tags tell the direction and shape of the fitted curve.

SMILES | Potency | activity, negative = inhibition
COc1ccc(NC(=O)c2cc3c(=O)n(C)c4ccccc4c3n2C)cc1OC | inconclusive [inhibitor, single point] | 
CC1=CC(C)(C)N2C(=O)C3(SCC(=O)N3c3ccc(O)cc3)c3cc(C)cc1c32 (stereo not drawn) | inconclusive [inhibitor, partial curve] | 
Cc1oc(-c2cccc(Cl)c2)nc1CN1CCCC(C(=O)NC(C)c2ccc3c(c2)OCCO3)C1 (stereo not drawn) | inconclusive [inhibitor, partial curve] | 
COc1cc(-c2c(C#N)c(N)nc3c2CCCC3)cc(OC)c1OC | inconclusive [inhibitor, partial curve] | 
Cn1cccc1C(=O)N1CCC2(CC1)CCN(C(c1ccccc1)c1ccccc1)CC2 | inconclusive [inhibitor, partial curve] | 
Cc1nn(C)c(C)c1NC(=O)CN1CCC(O)(c2ccc3c(c2)OCO3)CC1 | inactive | 
CN(C(=O)CSc1nc2ccccc2n1CCc1ccccc1)C1CCS(=O)(=O)C1 (stereo not drawn) | inconclusive [inhibitor, partial curve] | 
O=S(=O)(NCc1cn2ccsc2n1)c1cccs1 | inactive | 
CCOC(=O)N1CCC(NC(=O)c2cc(C(=O)Nc3ccc(OCC)cc3)ccc2CO)CC1 | inconclusive [inhibitor, single point] | 
C[Si](C)(C)Cl | inactive | 
Cc1cc(C)c2c(n1)nn1c(NCCN3CCOCC3)cc(C)nc21 | inactive | 
C=CCC1(C)OC=Cc2nc3cc(Cl)c(Cl)cc3nc21 (stereo not drawn) |  | inactive: 16.1% [at 11.5 µM]
O=Nc1c(-c2c(O)[nH]c3ccccc23)[nH]c2ccccc12 | active: 10 µM | 
c1ccc2c(c1)Cc1cc(CN3CCOCC3)ccc1-2 | inconclusive [inhibitor, single point] | 
c1ccc(C2=Nn3c(nnc3-c3cccnc3)SC2)cc1 |  | inconclusive: -30.8% [inhibitor]
CCOc1cccc(-c2nnc3sc(COc4ccc(C)cc4)nn23)c1 | inactive | 
Cc1cc(Nc2cccc(C)c2C)n2nc(C)nc2n1 | inconclusive [inhibitor, single point] | 
CC(=O)[C@@H]1CC[C@@H]2[C@@H]3CC=C4C[C@H](OS(=O)(=O)O)CC[C@@]4(C)[C@H]3CC[C@]21C | inactive | 
Cc1ccc2c(c1)c1c3n2CCN(C(=O)C2CC2)C3CCC1 (stereo not drawn) | inconclusive [inhibitor, partial curve] | 
CC(=O)Oc1cc(OC(C)=O)c2c(c1)OC(c1ccc(OC(C)=O)c(OC(C)=O)c1)C(OC(C)=O)C2 (stereo not drawn) | inconclusive [inhibitor, partial curve] | 
CCN(CC)c1ccc(NS(=O)(=O)c2ccc3c(c2)oc(=O)n3C)c(C)c1 | inconclusive [inhibitor, single point] | 
O=S(Cc1ccc(Cl)cc1)CC(O)COc1ccc(Cl)cc1 (stereo not drawn) | inconclusive [inhibitor, partial curve] | 
COc1cc(Sc2ccc(C)cc2)c(OC)cc1N | inconclusive [inhibitor, single point] | 
O=C(Nc1ncc(Br)s1)C(Cc1ccccc1)n1cccc1 (stereo not drawn) | inconclusive [inhibitor, single point] | 
CC(C)(C)CNCCO |  | inactive: -2.36% [at 11.5 µM]

SMILES | Potency | activity, negative = inhibition
O=C(Nc1ccc(Nc2ccccc2)cc1)c1ccc(Br)o1 |  | inconclusive: -58.9% [inhibitor]
CC(C)(C)NS(=O)(=O)c1ccc(NS(=O)(=O)c2ccc(F)cc2)cc1 | inconclusive [inhibitor, single point] | 
O=C(CSc1ncn[nH]1)Nc1ccc(Cl)c(Cl)c1 | inconclusive [inhibitor, single point] | 
Cc1nc2ccccc2c(=O)n1/N=C/c1cn(-c2ccccc2)nc1-c1cccs1 | inconclusive [inhibitor, partial curve] | 
CCCNc1nc2c(c(=O)n(C)c(=O)n2C)n1CCc1ccccc1 | inconclusive [inhibitor, partial curve] | 
Cc1ccccc1OCCCC(=O)Nc1nccs1 | inconclusive [inhibitor, single point] | 
O=C1CC(Nc2ccc(N3CCOCC3)cc2)C(=O)N1Cc1ccccc1 (stereo not drawn) | inconclusive [inhibitor, partial curve] | 
O=C(Nc1ccc(Cl)c(Cl)c1)N(Cc1cccnc1)Cc1ccco1 | inconclusive [inhibitor, single point] | 
COc1cccc(Nc2ncc3nc(C)c(=O)n(C)c3n2)c1 | inactive | 
CC(C)N1CC(O)=C(c2nc3ccccc3[nH]2)C1=N | inconclusive [inhibitor, single point] | 
CCOC(=O)c1ccc(NC(=O)Nc2ccn(C)n2)cc1 | inconclusive [inhibitor, full curve, poor fit] | 
Cc1nnc(-n2cnc3ccccc32)c2ccccc12 | inconclusive [inhibitor, full curve] | 
OC[C@@H]1O[C@@H](n2cnc3c(Nc4ccccc4)ncnc32)[C@@H](O)[C@H]1O | inconclusive [inhibitor, partial curve] | 
N#CC(C#N)=C(N)/C(C#N)=C/c1ccc(O)cc1 | active: 12.6 µM | 
Cc1c(NC(=O)c2cnn3c(C(F)(F)F)cc(-c4ccco4)nc23)c(=O)n(-c2ccccc2)n1C | inconclusive [inhibitor, single point] | 
Cc1cc2ccc(C)c(C)c2nc1SCC#N | inactive | 
C[C@@](N)(Cc1ccc(O)cc1)C(=O)O | inconclusive [inhibitor, partial curve, poor fit] | 
CC(C)C1C(C#N)=C(N)SC(N)=C1C#N | inconclusive [inhibitor, single point] | 
O=c1c(-c2ccccc2)nc2cnc(N3CCOCC3)nc2n1C1CC1 | inactive | 
O=C(CSc1nc2ccccc2o1)NCc1ccc2c(c1)OCO2 | inconclusive [inhibitor, partial curve] | 
C[C@H](O)[C@H](O)[C@@H]1CNc2nc(N)[nH]c(=O)c2N1 | inactive | 
Cc1ccc2nc(C)cc(OCC(=O)O)c2c1 | inactive | 
CCN1CCN(c2cc(C)c3cc(NC(=O)c4ccncc4)ccc3n2)CC1 | inactive | 
C/C1=C2N=C(/C=C3N=C(/C(C)=C4\[N-]C(C)(C5N=C1C(C)(CCC(=O)NCC(C)OP(=O)([O-])O[C@H]1C(O)C(n6cnc7cc(C)c(C)cc76)O[C@@H]1CO)C5CC(N)=O)C(C)(CC(N)=O)C4CCC(N)=O)C(C)(CC(N)=O)C\3CCC(N)=O)C(C)(C)C/2CCC(N)=O.[CH2-]C1OC(n2cnc3c(N)ncnc32)C(O)C1O.[Co] (stereo partly drawn) | inactive | 
COc1ccc(-c2cc(=O)c3c(O)cc(O)cc3o2)cc1 | inconclusive [inhibitor, single point] | 

SMILES | Potency | activity, negative = inhibition
CCOC(=O)c1ccc(Oc2cc(C)nc(SC)n2)cc1 | inactive | 
Cc1nnc(NC(=O)CSc2nnc3scc(-c4ccc(C)c(C)c4)n23)s1 | inconclusive [inhibitor, partial curve] | 
CCOC(=O)c1cnc(-n2nc(C)cc2C)nc1NC1CCCCC1 | inactive | 
COc1cccc(NC(=O)N2CCN(c3cccc(C)c3)C(C)C2)c1 (stereo not drawn) | inconclusive [inhibitor, single point] | 
NS(=O)(=O)c1ccc(NC(=O)c2ccccc2C(=O)N2CCCCC2)cc1 | inactive | 
N#CCCn1c(=O)c(-c2ccccc2)nc2cnc(N3CCNCC3)nc21 | inactive | 
Cc1cc(C2N=C(N)Nc3nc4ccccc4n32)c(C)n1-c1ccccc1Cl (stereo not drawn) | inactive | 
O=c1c(O)cccc2cc(O)c(O)c(O)c12 | inconclusive [inhibitor, single point] | 
O=C(CCn1c(=O)oc2ccccc21)Nc1ccccc1 | inconclusive [inhibitor, single point] | 
O=C(CSc1nnc2ccccn12)c1ccc(OC(F)F)cc1OC(F)F | inconclusive [inhibitor, single point] | 
Cc1nn2c(-c3cccc(NC(=O)CN4CCOCC4)c3)nnc2c2ccccc12 | inconclusive [inhibitor, single point] | 
Brc1ccc(CSc2ncn[nH]2)cc1 | inactive | 
CCSC1=N/C(=C\c2ccc3c(c2)OCO3)C(=O)S1 | inactive | 
Cc1cccc(OCc2nnc(SCc3cc(=O)n4cc(Br)ccc4n3)o2)c1 | inactive | 
CCCCC(=O)Nc1cccc(-c2nc3ncccc3o2)c1 | inactive | 
COC(=O)C/C=C\[C@@H](C)[C@@H](/C=N\O[C@@H](C)c1cc(-c2c(C)cc(C)cc2C)no1)OC |  | inactive: 10.4% [at 11.5 µM]
CCOC(=O)c1sc(NC(=O)c2c(C)nn(Cc3ccccc3)c2C)cc1C | inactive | 
CC1=C/C(=C\c2ccc3c(c2)OCO3)C(=O)S1 | inactive | 
C=CCn1c(SCC(=O)Nc2ccc(N(C)C)cc2)nnc1-c1cccc(C)c1 | inconclusive [inhibitor, full curve, poor fit] | 
COc1cc(C(=O)NCCC(=O)NCCCN2CCCCC2C)cc(OC)c1OC (stereo not drawn) | inactive | 
N#Cc1c(NC(=O)c2ccncc2)sc2c1CCC2 | inactive | 
COC(=O)[C@@]1(Cc2ccc(OC)cc2)[C@H]2c3cc(C(=O)N4CCCC4)n(CCF)c3C[C@H]2CN1C(=O)c1ccccc1 | inactive | 
Oc1c(I)cc(I)c2cccnc12 | inconclusive [inhibitor, single point] | 
